Results as given in PubChem BioAssay AID2107 (National Center for Advancing Translational Sciences (NCATS), 2009).
Hit rate of the full screen: of about 240,000 compounds, about 20 (0.008%) were called active. The shares of active, inactive and inconclusive entries below differ from those in the screen. Calls follow the shape of the dose curve; as a rule, active = well fitted inhibition curve with a large enough effect; inconclusive = small, poorly fitted or top-dose-only effect, or effect the other way; inactive = flat fitted curve, though single readings scatter. Potencies of inconclusive entries are left out as doubtful fits.

Biological target: Alpha-galactosidase A (Homo sapiens) (UniProt P06280)
Experiment: qHTS Assay for Inhibitors and Activators of Human alpha-Galactosidase From Spleen Homogenate;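 as to activity change, negative = inhibition: 0% = enzyme with vehicle and -100% = no enzyme basal signal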
Settings: 4MU-alpha-Gal fluorescence, 40 min; activity change, negative = inhibition: at 80 µM (top of the series)
Method in brief: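 Human spleen homogenate (1 ug) was the enzyme source, with 4-methylumbelliferyl-alpha-D-galactopyranoside (1 mM final) in pH 5.0 citrate buffer with 0.01% Tween-20. Compounds were titrated; after 40 min at 37C, NaOH/glycine stop, 4-MU fluorescence read; AC50 from Hill fits.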
Potency is read from the fitted curve at half-maximal effect; tags tell the direction and shape of the fitted curve.

Sequence of UniProt P06280 (P06280 whole entry, looked up): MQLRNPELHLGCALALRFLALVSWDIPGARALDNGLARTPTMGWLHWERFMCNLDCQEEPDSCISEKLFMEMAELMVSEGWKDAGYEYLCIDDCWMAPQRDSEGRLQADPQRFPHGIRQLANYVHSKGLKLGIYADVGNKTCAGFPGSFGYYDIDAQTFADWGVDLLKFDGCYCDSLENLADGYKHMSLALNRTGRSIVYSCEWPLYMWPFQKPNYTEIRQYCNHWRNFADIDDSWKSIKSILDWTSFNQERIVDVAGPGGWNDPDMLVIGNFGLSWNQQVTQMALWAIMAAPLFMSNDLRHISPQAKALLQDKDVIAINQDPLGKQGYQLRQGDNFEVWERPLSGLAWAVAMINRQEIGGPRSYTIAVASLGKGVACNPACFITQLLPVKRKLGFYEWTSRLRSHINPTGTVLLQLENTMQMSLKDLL

Row | SMILES | Potency | activity change, negative = inhibition
1 | C(=N\N(c1ccccc1)c1ccccc1)/c1ccc(N2CCOCC2)s1 | inactive | 
2 | Cc1ccc(-c2cc(-c3ccccc3C)[nH]n2)c(O)c1 | inconclusive [activator, full curve, poor fit] | 
3 | CCOC(=O)c1cc2c(=O)n3ccccc3nc2n(CCCOC)c1=NC(=O)c1ccncc1 | inconclusive [activator, partial curve] | 
4 | CCOC(=O)CCSc1nc(C)c2cc(C)ccc2n1 | inconclusive [activator, single point] | 
5 | COc1ccc(C2CC(=O)N3CN(c4ccc(C)c(Cl)c4)CSC3=C2C#N)cc1 (stereo unspecified) | inactive | 
6 | CCOc1ccc(-c2cc(CCCC(=O)NCCC(C)C)no2)cc1 | inconclusive [activator, single point] | 
7 | COc1ccc(NC(=O)CC2C(=O)N(C)C(=S)N2CCc2ccccc2)cc1 (stereo unspecified) | inactive | 
8 | c1ccc2c(NCCCN3CCOCC3)c3ccccc3nc2c1 | inconclusive [activator, partial curve] | 
9 | CC(C)C1Nc2c(C(=O)O)cccc2C(Nc2ccccc2C(=O)O)C1(C)C (stereo unspecified) | inconclusive [activator, single point] | 
10 | COCCNC(=O)Cc1ccc(Br)cc1 | inconclusive [inhibitor, partial curve] | 
11 | Cc1ccc(-c2cn3cccnc3n2)cc1NC(=O)c1ccc(Br)o1 | inconclusive [activator, partial curve] | 
12 | CCOC(=O)c1cc2cc3ccccc3cc2[nH]1 | inconclusive [activator, single point] | 
13 | COc1ccccc1-c1coc2cc(O)ccc2c1=O | inconclusive [activator, partial curve] | 
14 | Oc1ccc(C2CNCCc3c2cc(O)c(O)c3Cl)cc1 (stereo unspecified) | inconclusive [inhibitor, partial curve] | 
15 | O=c1oc2c3c4c(cc2c2c1CCC2)OCCN4CCC3 | inconclusive [activator, partial curve] | 
16 | COc1ccc(S(=O)(=O)Nc2cc(C(=O)NC3CCCCCC3)ccc2N2CCOCC2)cc1 | inactive | 
17 | CC(C)C[C@H](NC(=O)[C@H](Cc1ccccc1)NC(=O)CNC(=O)[C@H](CCC(=O)O)NC(=O)[C@H](CCCNC(=N)N)NC(=O)[C@H](C)NC(=O)[C@H](C)NC(=O)[C@@H](N)CC(=O)O)C(=O)N[C@@H](CC(=O)O)C(=O)N[C@H](C(=O)N[C@@H](CC(C)C)C(=O)N[C@H](C(=O)N[C@H](C(=O)N[C@@H](CC(C)C)C(=O)N[C@@H](Cc1cnc[nH]1)C(=O)N[C@@H](CCCNC(=N)N)C(=O)N[C@@H](C)C(=O)NCC(=O)N[C@@H](C)C(=O)N[C@@H](CCCNC(=N)N)C(=O)O)C(C)C)C(C)C)[C@@H](C)O | inactive | 
18 | CC(=O)Nc1ccccc1C(=O)N1CCN(c2cccc(C)c2C)CC1 | inconclusive [inhibitor, full curve, poor fit] | 
19 | COc1ccc(CNC(=O)c2c(N)n(CCCN3CCOCC3)c3nc4ccccc4nc23)cc1 | inconclusive [activator, single point] | 
20 | COc1cccc(NC(=S)NNC(=O)c2ccccc2OC(F)F)c1 | inactive | 
21 | Cc1nn(-c2nc3ccccc3[nH]2)c(N)c1-c1ccccc1 | inconclusive [inhibitor, single point] | 
22 | Cc1ccc2nc(NC(=O)c3cc(-c4ccco4)nc4ccccc34)sc2c1 | inconclusive [activator, single point] | 

Row | SMILES | Potency | activity change, negative = inhibition
23 | O=C(Cc1cc(=O)oc2cc(O)ccc12)NCC1CCC(C(=O)O)CC1 (stereo unspecified) | inconclusive [activator, partial curve] | 
24 | CCCCCC(=O)Nc1ccc(-c2cn3cccnc3n2)cc1 | inconclusive [activator, partial curve] | 
25 | Nc1c(S(=O)(=O)c2cccs2)c2nc3ccccc3nc2n1Cc1cccs1 | inconclusive [activator, partial curve] | 
26 | Cc1ccc(NC(=O)C2CCN(S(=O)(=O)c3cnc[nH]3)CC2)nc1 | inconclusive [inhibitor, single point] | 
27 | C/C(CCN1CCCc2nc(C)c(C)cc21)=N\OC[C@@H](O)[C@@H]1O[C@@H]2OC(C)(C)O[C@@H]2[C@H]1O |  | inactive: 0.895% [at 17.5 µM]
28 | Cc1ccc(N2NC(=O)/C(=C\c3cc4c(cc3[N+](=O)[O-])OCO4)C2=O)cc1C | inactive | 
29 | CC1(C)CCC(NC(=O)[C@@H](N)CCC(=O)O)CC1 | inactive | 
30 | O=C1NCCC/C1=N/Nc1ccc(F)cc1 | inactive | 
31 | CC(=O)NCCc1ccc(S(=O)(=O)Nc2cccnc2)cc1 | inactive | 
32 | Cc1cccc(C(=O)N=c2c(C#N)cc3c(=O)n4cccc(C)c4nc3n2Cc2ccco2)c1 | inconclusive [activator, partial curve] | 
33 | COCCN(CCOC)C(=O)c1cc2c(=O)n3ccccc3nc2s1 | inconclusive [activator, partial curve] | 
34 | COc1ccc2c(c1)c1ncn(CC3CCCO3)c(=O)c1n2C (stereo unspecified) | inconclusive [activator, partial curve] | 
35 | O=C(Cc1cccs1)NCc1cccnc1 | inactive | 
36 | CN1c2ccccc2-c2nc3ccccc3n2C1c1cccs1 (stereo unspecified) | inconclusive [activator, partial curve] | 
37 | CCn1c(SCC(=O)N2CCN(c3ccccc3)CC2)nc2c(c1=O)SC(C)C2 (stereo unspecified) | inactive | 
38 | CCOC(=O)c1cc2c(=O)n3cccc(C)c3nc2n(CCCOC)c1=NC(=O)c1cccnc1 | inconclusive [activator, partial curve] | 
39 | COc1ccc(NC(=O)c2ccccc2NC(=O)c2ccco2)c(OC)c1 | inactive | 
40 | C[C@@H]1C(c2cccc(Cl)c2)=NN(c2ccc(Br)cc2)[C@H]1C(=O)N1CCOC1=O | inconclusive [activator, partial curve] | 
41 | CCCCC(=O)N(Cc1nc2sc(C)c(C)c2c(=O)[nH]1)C1CCCC1 | inconclusive [inhibitor, full curve, poor fit] | 
42 | Cc1ccc(C)n1-n1cnc2sc(-c3ccccc3)cc2c1=O | inactive | 
43 | COc1ccccc1-c1cc2nc(C)c(CCC(=O)NCc3ccc(F)cc3)c(C)n2n1 | inconclusive [activator, single point] | 
44 | O=C(C1CCCN(Cc2ccccc2)C1)N1CCCCC1 (stereo unspecified) | inactive | 

Row | SMILES | Potency | activity change, negative = inhibition
45 | O=c1c2ccccc2cnn1-c1ccc(Br)cc1 | inconclusive [activator, single point] | 
46 | Nc1c(C(=O)NCCN2CCOCC2)c2nc3ccccc3nc2n1CCc1ccccc1F | inconclusive [activator, single point] | 
47 | Cc1ccc(-n2c(N)c(C(=O)NCc3cccnc3)sc2=S)cc1 | inactive | 
48 | c1ccc(OCc2nn3c(Cn4cnc5ccccc54)nnc3s2)cc1 | inactive | 
49 | Nc1c(C(=O)OCC2CCCO2)c2nc3ccccc3nc2n1C1CCCC1 (stereo unspecified) | inconclusive [activator, single point] | 
50 | COC(=O)C1CCN(C(=O)COC(=O)c2ccc(OC)c(S(=O)(=O)N3CCCc4ccccc43)c2)CC1 | inactive | 
51 | CCC(C)OC(=O)C1=C(C)O[C@]23OC(N)=C(C#N)[C@]12C(=O)c1ccccc13 (stereo partly specified) | inconclusive [activator, single point] | 
52 | Cc1ccc(OCc2nnc(SCC(=O)Nc3cccc4ccccc34)n2-c2ccccc2)cc1 | inconclusive [inhibitor, single point] | 
53 | O=C(CS(=O)(=O)Cc1ccccc1)N1CCc2ccccc21 | inconclusive [inhibitor, single point] | 
54 | CN1C=CC2=C(C#N)C(N)C(C#N)(C#N)[C@H](c3ccccc3)[C@H]2C1 (stereo partly specified) | inconclusive [activator, single point] | 
55 | CC1(C)CC(=O)C2=C(C1)OC1=C(C(=O)CC(C)(C)C1)C2c1ccc(O)c([N+](=O)[O-])c1 | inactive | 
56 | Cc1ccc(SCC(=O)N2CCc3ccccc32)cc1 | inconclusive [inhibitor, single point] | 
57 | CCS(=O)(=O)N1Cc2ccccc2CC1C(=O)Nc1ncc(C)s1 (stereo unspecified) | inactive | 
58 | Cc1cc(N2CCN(C3CCCC3)CC2)n2c(nc3ccccc32)c1C#N | inconclusive [activator, single point] | 
59 | Nc1ccc(-c2nc3ccc(N)cc3s2)cc1 | inconclusive [activator, partial curve] | 
60 | Cc1ccccc1C(=O)NNC(=O)C(=O)N1CCCCC1 | inactive | 
61 | COc1ccc(C(=O)C2CCN(C(=S)Nc3ccc(F)cc3)CC2)cc1 | inconclusive [activator, single point] | 
62 | CC1(C)C(=O)Nc2ccccc2N1C(=O)COc1ncnc2c(Cl)cc(Cl)cc12 | inconclusive [activator, single point] | 
63 | COc1cccc(C2=NOC(C(=O)Nc3cc(OC)c(OC)c(OC)c3)C2)c1 (stereo unspecified) | inconclusive [activator, single point] | 
64 | CN1CCN(CCCNC(=O)c2ccc3c(c2)N(Cc2ccccc2)CCS3)CC1 | inconclusive [activator, partial curve] | 
65 | Cc1ccsc1C1C2=C(CC(C)(C)CC2=O)Nc2ncnn21 (stereo unspecified) | inconclusive [activator, single point] | 
66 | CCN(CC)CC(=O)Nc1cc(N(C)C)nc2ccccc12 | inconclusive [activator, single point] | 
